# Assay results from PubChem BioAssay (NCATS).
# Where “and” joins values, the source holds several entries; their conditions need not be identical. Equal entries are not always repeated. Inconclusive means that the source gave no clear call. Such entries were picked first, then a sample of the others. For some assays here: A potency beside an inconclusive call is a rough fit, not a confirmed value. Calls of active or inactive are those of the source. Calls come from the whole dose curve; as a rule, active = well fitted curve in the direction sought with a large enough effect; inconclusive = small, poorly fitted or top-dose-only effect, or another doubt; inactive = no such curve, though single readings can be large; an effect the other way counts as inactive or inconclusive.
# Legend:
# [1] = test system: Zika virus NS2B-NS3 protease; assay: Primary screen GU AMC qHTS for Zika virus inhibitors (AID 1347154); note: nearly all actives have a fitted effect of over 70% in size
# How it was run: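 Fluorogenic AMC-substrate cleavage by noncovalent NS2B-NS3 protease complex (25 nM, pH 8.0 Tris buffer with Tween 20) followed for 15 minutes at room temperature (~20% conversion). Percent inhibition from ex340/em450 signal change, fitted by 4-parameter Hill equation.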
# [2] = Primary qHTS for small molecule stabilizers of the endoplasmic reticulum resident proteome: Secreted ER Calcium Modulated Protein (SERCaMP) assay (AID 1508630); conditions: SH-SY5Y GLuc-SERCaMP (Gaussia luciferase released on ER calcium loss) secretion, thapsigargin, luminescence; activity change, negative = inhibition: at 38.4 µM (top of the series) unless noted
# How it was run: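 The SH-SY5Y reporter protocol was run at 3 concentrations up to 38.3 uM (primary) or 11 concentrations (follow-up): 16 h compound, 100 nM thapsigargin for 4 h, then extracellular luciferase luminescence.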
# [3] = qHTS for Inhibitors of WRN Helicase: Thiazole Orange DNA Binding Counterscreen (AID 720499);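 note: drop in dye fluorescence marks compound binding to DNA; nearly all actives have a fitted effect of over 60% in size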
# How it was run: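 Counterscreen to remove nonspecific DNA binders from WRN helicase hits. Compounds were incubated 15 min at room temperature with 50 nM DNA and 100 nM ThO, then fluorescence was recorded (480 nm excitation, 530 nm emission).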
# [4] = molecular target: DNA polymerase kappa (Homo sapiens) (UniProt Q9UBT6); assay: qHTS for Inhibitors of Polymerase Kappa: Confirmatory Assay for Cherry-picked Compounds (AID 720501); conditions: purified Pol-kappa, fluorescent strand-displacement substrate
# How it was run: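 Strand-displacement fluorescence read-out: TAMRA reporter released from a BHQ-2-quenched template, measured at 525/598 nm over a 10 min kinetic window. Substrate was 50 nM final; enzyme was 10 nM Pol-kappa, preincubated 15 min at room temperature with compound.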
# [5] = molecular target: Calcium and integrin-binding protein 1 (Homo sapiens) (UniProt Q99828); assay: Primary qHTS for Identification of Calcium Integrin Binding Protein 1 (CIB1) Competitor (AID 1508620)
# How it was run: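 CIB1-GST (1 uM final) and compound incubated 15 min at room temperature before adding FITC-alphaIIb peptide tracer (100 nM final). Competition for binding read by fluorescence polarization (ex 480, em 540) after another 15 min at room temperature.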
# [6] = molecular target: Ubiquitin carboxyl-terminal hydrolase 1 (Homo sapiens) (UniProt O94782); assay: Inhibitors of USP1/UAF1: Pilot qHTS (AID 504865);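 note: rhodamine fluorescence freed from ubiquitin-rhodamine substrate followed over time; nearly all actives have a fitted effect of over 35% in size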
# How it was run: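 USP1/UAF1 complex at 1 nM preincubated 15 min at room temperature with compound, then Ub-Rho substrate added at 150 nM final. Fluorescence (480/540 nm) read kinetically in 50 mM HEPES pH 7.8, 0.5 mM EDTA, 1 mM TCEP, 0.1 mg/ml BSA, 0.01% Tween-20.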
# [7] = test system: Zika virus NS2B-NS3 protease (linked); assay: 384 well plate NINDS AMC confirmatory qHTS for Zika virus inhibitors (AID 1347163); note: nearly all actives have a fitted effect of over 50% in size
# How it was run: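 Fluorescence at 355/460 nm was read after 25 minutes of cleavage of 30 microM Ac-VKTGKR-AMC at room temperature, in the dark. Before substrate addition, compounds (up to 1 mM final) sat ~15 minutes with 5, 30 or 60 nM linked protease. Signals were normalized to no-enzyme and no-inhibitor wells.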
# [8] = Tertiary RLuc qRT-PCR qHTS assay for Zika virus inhibitors (AID 1347169); note: nearly all actives have a fitted effect of over 55% in size
# How it was run: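 Vero cells (1,000/well) infected with recombinant ZIKV-RLuc (Cambodian) at MOI 1-2 after compound addition, 48-72 hrs at 37 degrees C. Live-cell Renilla luciferase substrate added; luminescence read after 1-1.5 hrs.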
# [9] = molecular target: Rap guanine nucleotide exchange factor 4 (Homo sapiens) (UniProt Q8WZA2); assay: Confirmatory qHTS for antagonist of cAMP-regulated guanine nucleotide exchange factor 4 (EPAC2) (AID 1645885); conditions: activity change, negative = inhibition: at 12.7 µM (top of the series) unless noted; note: nearly all actives have a fitted effect of over 25% in size
# [10] = Confirmatory qHTS for small molecule stabilizers of the endoplasmic reticulum resident proteome: Secreted ER Calcium Modulated Protein (SERCaMP) assay (AID 1508628); note: nearly all actives have a fitted effect of over 40% in size
# How it was run: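 Reporter secretion upon ER calcium depletion (100 nM thapsigargin, 4 h, 37C) is measured as medium luminescence with coelenterazine, after 16 h compound pretreatment of SH-SY5Y-GLuc-SERCaMP cells; primary at three concentrations up to 38.3 uM, follow-up at 11 (up to 76.6 uM).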
# Potency is the fitted concentration of half-maximal effect; tags give direction and shape of the fitted curve.
# UniProt Q9UBT6, sequence (Q9UBT6 whole entry, looked up): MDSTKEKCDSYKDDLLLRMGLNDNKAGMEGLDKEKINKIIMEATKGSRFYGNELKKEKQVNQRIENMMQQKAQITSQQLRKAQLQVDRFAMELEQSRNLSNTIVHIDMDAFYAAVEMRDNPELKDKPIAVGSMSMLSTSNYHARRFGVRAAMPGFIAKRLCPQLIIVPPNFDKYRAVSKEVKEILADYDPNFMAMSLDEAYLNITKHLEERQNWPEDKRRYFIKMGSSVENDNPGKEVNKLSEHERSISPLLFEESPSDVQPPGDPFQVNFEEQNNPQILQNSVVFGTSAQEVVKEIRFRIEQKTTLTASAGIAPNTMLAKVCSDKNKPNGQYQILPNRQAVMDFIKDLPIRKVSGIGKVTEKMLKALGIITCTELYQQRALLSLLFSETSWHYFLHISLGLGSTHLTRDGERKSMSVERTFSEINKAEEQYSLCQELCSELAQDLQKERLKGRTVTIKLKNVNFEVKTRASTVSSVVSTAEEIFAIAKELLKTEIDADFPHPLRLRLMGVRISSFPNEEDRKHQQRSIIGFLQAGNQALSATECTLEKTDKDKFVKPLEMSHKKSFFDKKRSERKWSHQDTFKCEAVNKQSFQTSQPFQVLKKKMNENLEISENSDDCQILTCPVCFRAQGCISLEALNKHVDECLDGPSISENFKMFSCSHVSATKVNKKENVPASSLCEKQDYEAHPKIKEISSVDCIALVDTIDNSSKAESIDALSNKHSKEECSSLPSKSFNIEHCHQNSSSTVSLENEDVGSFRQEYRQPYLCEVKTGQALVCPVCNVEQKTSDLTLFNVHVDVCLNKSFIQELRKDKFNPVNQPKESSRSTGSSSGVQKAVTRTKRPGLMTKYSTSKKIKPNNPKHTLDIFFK
# UniProt Q8WZA2, sequence (Q8WZA2 whole entry, looked up): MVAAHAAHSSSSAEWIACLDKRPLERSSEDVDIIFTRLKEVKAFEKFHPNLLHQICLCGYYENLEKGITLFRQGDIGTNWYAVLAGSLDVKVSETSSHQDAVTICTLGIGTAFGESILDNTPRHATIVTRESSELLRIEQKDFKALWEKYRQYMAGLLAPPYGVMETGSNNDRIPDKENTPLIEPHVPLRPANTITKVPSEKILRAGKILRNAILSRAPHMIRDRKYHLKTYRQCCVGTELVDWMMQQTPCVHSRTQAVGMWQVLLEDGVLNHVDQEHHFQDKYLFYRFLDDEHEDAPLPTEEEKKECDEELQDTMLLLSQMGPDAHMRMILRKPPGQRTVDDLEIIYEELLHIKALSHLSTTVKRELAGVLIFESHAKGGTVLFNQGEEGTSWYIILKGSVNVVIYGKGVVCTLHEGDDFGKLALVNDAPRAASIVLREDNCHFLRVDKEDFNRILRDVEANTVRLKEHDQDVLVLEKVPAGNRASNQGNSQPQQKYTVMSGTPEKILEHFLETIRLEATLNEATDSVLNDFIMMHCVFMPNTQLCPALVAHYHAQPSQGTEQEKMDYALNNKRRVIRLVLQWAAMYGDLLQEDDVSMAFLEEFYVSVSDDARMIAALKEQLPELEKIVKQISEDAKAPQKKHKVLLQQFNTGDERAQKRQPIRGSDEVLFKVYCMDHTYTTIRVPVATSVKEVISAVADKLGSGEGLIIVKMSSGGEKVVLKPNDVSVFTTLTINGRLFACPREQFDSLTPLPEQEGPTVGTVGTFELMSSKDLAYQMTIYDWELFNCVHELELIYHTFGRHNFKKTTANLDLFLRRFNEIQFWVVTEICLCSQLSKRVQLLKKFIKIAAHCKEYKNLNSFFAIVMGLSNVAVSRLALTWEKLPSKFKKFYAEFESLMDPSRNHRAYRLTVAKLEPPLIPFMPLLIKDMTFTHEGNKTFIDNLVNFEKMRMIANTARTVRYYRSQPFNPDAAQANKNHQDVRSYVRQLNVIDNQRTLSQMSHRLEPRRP
# UniProt O94782, sequence (O94782 whole entry, looked up): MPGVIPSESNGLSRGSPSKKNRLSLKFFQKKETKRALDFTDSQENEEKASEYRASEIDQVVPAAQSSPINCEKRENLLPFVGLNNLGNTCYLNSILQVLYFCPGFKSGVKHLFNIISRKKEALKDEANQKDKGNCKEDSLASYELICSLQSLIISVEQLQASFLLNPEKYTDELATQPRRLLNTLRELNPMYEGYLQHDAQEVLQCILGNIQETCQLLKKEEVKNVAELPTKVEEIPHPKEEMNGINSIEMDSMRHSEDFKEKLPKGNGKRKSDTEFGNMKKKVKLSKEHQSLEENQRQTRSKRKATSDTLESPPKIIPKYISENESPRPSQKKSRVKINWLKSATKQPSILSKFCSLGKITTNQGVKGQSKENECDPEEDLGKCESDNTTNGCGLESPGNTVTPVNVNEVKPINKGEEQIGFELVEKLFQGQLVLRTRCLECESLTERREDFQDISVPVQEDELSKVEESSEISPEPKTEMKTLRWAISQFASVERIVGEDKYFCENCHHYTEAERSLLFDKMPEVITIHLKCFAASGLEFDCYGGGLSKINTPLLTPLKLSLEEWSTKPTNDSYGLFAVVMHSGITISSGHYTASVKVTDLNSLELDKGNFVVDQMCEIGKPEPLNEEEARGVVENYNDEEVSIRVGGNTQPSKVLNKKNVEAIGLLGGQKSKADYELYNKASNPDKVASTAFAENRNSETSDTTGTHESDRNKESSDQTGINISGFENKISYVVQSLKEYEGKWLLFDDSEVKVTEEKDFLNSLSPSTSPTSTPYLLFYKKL
# UniProt Q99828, sequence (Q99828 whole entry, looked up): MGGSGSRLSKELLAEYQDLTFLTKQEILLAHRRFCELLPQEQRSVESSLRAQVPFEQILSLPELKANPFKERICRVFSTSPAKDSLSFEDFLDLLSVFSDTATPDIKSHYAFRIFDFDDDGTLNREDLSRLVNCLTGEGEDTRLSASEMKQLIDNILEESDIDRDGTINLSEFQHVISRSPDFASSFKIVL
compound,measurement,setting,value
N=C(N)SCCc1ccc(OCc2ccc([N+](=O)[O-])cc2)cc1,Potency,[1],inactive
same,Potency,[2],"inconclusive: 11.2 µM [inhibitor, single point]"
CN1CCN(c2ccc(Nc3c4ccccc4nc4ccccc34)cc2)CC1,Potency,[3],active: 7.64 µM
same,Potency,[4],active: 29.9 µM
same,Potency,[1],"inconclusive: 2.67 µM [inhibitor, partial curve]"
same,Potency,[5],"inconclusive: 56.2 µM [inhibitor, partial curve, poor fit]"
same,Potency,[2],inactive
CC1(COc2ccc(C[C@H]3SC(=O)NC3=O)cc2)CCCCC1,Potency,[6],active: 79.4 µM
same,Potency,[1],active: 11.9 µM
same,Potency,[7],"inconclusive: 79.4 µM [inhibitor, partial curve, poor fit]"
same,Potency,[8],"inconclusive: 10.4 µM [inhibitor, partial curve]"
same,Potency,[9],active: 49.4 µM
O=c1[nH]ccc2c(S(=O)(=O)N3CCCNCC3)cccc12,Potency,[1],active: 26.7 µM
same,Potency,[10],"inconclusive: 12.6 µM [inhibitor, partial curve, poor fit]"
same,Potency,[2],"inconclusive: 10 µM [inhibitor, partial curve, poor fit]"
NC(=NCc1ccc(Cl)cc1Cl)NC(=O)c1nc(Cl)c(N)nc1N,Potency,[1],"inconclusive: 18.9 µM [inhibitor, partial curve]"
same,Potency,[2],"inconclusive: 25.1 µM [inhibitor, single point] and inconclusive: 35.5 µM [inhibitor, single point]"
